# Results: the RNAGym collection of RNA variant scans (doi:10.7554/elife.90254)
# The source gives no read counts; variants with many changes may rest on few reads.
# B1: LINE1-full (parent)
# chain: UACGUAGGUGGUUUUCCCCUGAUAGUGCUAAGGGGGCCUGGAAGUUUGGACUGGGCAGAGCUCAACACAGCGUGGCAAAGUGGCUGUGGCUAGACUGCCUCUCUGGAUUCCUCGUCACUCAGCAGGGCAUCUCUGAGAGAAAUGCC
# Variants of: B1
# Assay: self-cleavage, relative activity (ratio to wild type); higher = more cleavage; in vitro, sequencing; the parent is a self-cleaving ribozyme
row,Variant,self-cleavage
1,A6G U47A A65G A77G U115A,0.99
2,U12C A22U A129U,1.03
3,U12C A59G U102C A107G,0
4,A43U U47C A77G U96A U108C,0
5,U14C U15C U26C C76A A138G,1.6
6,C51A A65G A79G,0.04
7,U5A A67G U87A A121U A124G,0.05
8,C71A C123U A140G A141G,0.11
9,A50G G54A U85A A124U,0.08
10,U9A A22G A24G U132C A140C,0.62
11,A64U A129G U134C,1.31
12,U46C U73C A121G,1.02
13,C19G U29A G144A,1.08
14,U26A U29G A42G U73C,0.84
15,U12C U13A A42G A79U G125U A136G U143C,1.47
16,A30G U39C U100A A138G,1.02
17,G4A U52A A69G A94G,0
18,U13C C38U U62A,0.07
19,U39A C98U C99A U134A,0.1
20,G41A A79G U109C A142U,0.9
21,A22G U96C A121U,0.25
22,U20C A57U U87C,0.06
23,U20C A78G C133U,1.44
24,G35A U73A A94U C146U,0.17

row,Variant,self-cleavage
1,A2G U52C G88A U143A,0.12
2,U15C C19U U29C U115C,1.27
3,U5A C68U G126U C128U,0.21
4,U13C A43G A77G A78G U143C,1.84
5,A42G U45G A78U A94U U96A C146U,0.06
6,U1C A6G U46C A107G,0
7,U26A U46A U143C,1.25
8,U20C U87C A117U,0.26
9,U39A U46C U81C,1.25
10,A6G U12C U81A U119C,1.98
11,A22G A67U C123A,0.13
12,A43U A57U G74U,0.09
13,A2U A69G C128U,0.55
14,G36A A64U A78C A92G,0.19
15,U45A U52A U81A,1.41
16,G4A A30G U100A U104A,0.9
17,A42G U87A U115C,0.22
18,A6G A22G C38A U104A,1.05
19,A59G U85A U96A,0.09
20,C63U U81A U119A,0.54
21,C38G U39C G49U A107G,1.11
22,A43G U73C U112C,0
23,A94G U100C U134G A141G,0.4
24,U15C U26A A42G U85A,0.24

row,Variant,self-cleavage
1,A79G U87A U130C,0.06
2,U62A A77G A94U,0.05
3,U87G A117G A138U A141G,0.1
4,U39A A79G U104C,1.02
5,U47C U62C A142C,0
6,U9C A31G U45A A107G A136G,0
7,U12C U26A A141G A142G,1.5
8,U5A A31U A57U U81A,0.24
9,A24G A129U A141G,1.8
10,A2G U9C A138G,0.53
11,U13C U62C A67G,0.22
12,A57G U81A A92G,0.1
13,U26A G40A U47A A94G U130C,0.13
14,U52C U96A A124G U132A,0
15,U29C U104A U143C,1.29
16,A2U U5C G21A U45C G54A A138G,1.44
17,A24G U39A A42G,1.18
18,U46C G105U C128A,1.1
19,U39C A78G U100C,1.7
20,C19U A31G G32A,0.07
21,U62C A129G U132A,0.07
22,C66U A69G U115C A136G,0.05
23,G41A G74U U108C A141G,1.88
24,U115C A121U A129G,1.53

row,Variant,self-cleavage
1,A22U U46C C63U C84A U104C,0.09
2,A57G U100C U134C,0.71
3,A22U U73C U130A A142G,1.66
4,A22G A43G A57U G88A,0.06
5,G25A U29C U62C,0.03
6,U26A U112C A124G,0.64
7,A77C A117C U119C,1.41
8,U20C U102C A129U,1.95
9,U23A U102A G135A,1.54
10,G34A A64G A117U,0.05
11,C38U U96A A140G,0.07
12,G53A C84U A136U,0.09
13,U45G C51U G105A,1.83
14,U62C U81A U87A,0.01
15,U20C A64C U119C U134C,0.38
16,U14C U52A A67G U100C U115A A140G,0.51
17,U5C C63U C84U U115C,0.27
18,G114A A138C A142C,0
19,A22G U46C A65G,0
20,U14C U29A G36A A64G U109A,0.21
21,U5A U12C U15C A77G,0.43
22,U13C A57U A67G A107G A117U,0
23,A6G A78G U102C A141G,0.38
24,A24U U87G A121U,0.08

row,Variant,self-cleavage
1,A65G A79U U108C,0.14
2,U47A A107G A138G A142G,0.32
3,A31U A43U A57C G58A C63A,0.09
4,C3G U14C U81C A124G,0
5,U62C A79G A94U A121U,0.05
6,C17A A77G U104C U132G A136U,1.67
7,A78G G106A U108A A141U,1.41
8,U15C U46C C63U U102C,0.33
9,U12A U87G U143C,0
10,U13A A31U U130C U134A,1.24
11,G55U A124G A141G,0.08
12,U12G U109C U130C,1.45
13,U13C U45G U96A,0.08
14,U12C U91C A136U,0
15,U46C C56U A64U,0.16
16,U20C U85C U115G,0
17,A22G C38U U46C A107U A136G,0.78
18,A22U A59U A117U A129G,0.92
19,A2G A50G U73G,0.14
20,C3U U52C U62C A78U A140U G144A,0.21
21,A30U U102C U134A C146U,0.85
22,A6U U62A U85C U109A A138G,0.22
23,U13C U87A A140G,0.23
24,A107G U134C U143C,1.31

row,Variant,self-cleavage
1,U12G U26C U85C A107G,0
2,A22G C28A U52C C95A,0.21
3,A65G U115A G127A U132C A141G,0.04
4,A57G U109A A121G,0.75
5,U13G A77U A129U A140G U143A,0.61
6,U26A A117U A129U,0.68
7,G49C A69G A79C,1.02
8,G25U U134C A140G,1.81
9,A78G U100C U143C,2.57
10,U14C A67G A117U,0.33
11,U14C U47C U109A,0.43
12,A78U A138G U143C,2.19
13,U13A U20C A24G G53U,1.21
14,U39C A64U A79G,0.45
15,G7C U15A U73C U109C U143C,0
16,U1C U14C U143C,0.76
17,U12A A69G A141G,0.73
18,U29A C90A A121C,0.04
19,U108C C118A A129U U134C,1.8
20,A6G U14C A141G,1.12
21,U73C A94U G114A,0.37
22,U23C A64U U104C U143C,0.87
23,U9C U13G U143C,1.21
24,U20C U100A A142G,0.5

row,Variant,self-cleavage
1,A2G U15C U62C A129U,0.45
2,A2U A6U U12C A77G,0.71
3,U13C A79G U119C U130C U134A,1.15
4,U14C A69G U81G A94C,0.44
5,G54A A77G A78G U102C U134C,0.33
6,U13C G36C C71U A121C U130C A136G,1.41
7,U15C U102A U115C,1.34
8,U13C A121U A142G,1.74
9,A43G A79G A117G U143C,0.92
10,G40U U62C U102C,0.04
11,U9C U26C C116A,1.24
12,U12A U47C U85A U112C,0
13,U12C U15C G27A A64G,0.54
14,U5C G32A A67G A77G A121U,0.21
15,U47C A50U A64U U100A,0.44
16,U39A A43G A57G U62A A79U,0
17,U12C U47A A141G A142G,0
18,A64G C118U A121G,0.22
19,U62C U108C C111U,0.06
20,A6U A43G A78U,1.39
21,U14C U45C A121G,1.27
22,U5C A24U U62C,0.48
23,A22U A69G A78U,1.41
